{
  "source": "the supplement of paper PMC12217912",
  "parents": {"B1": {"name": "TEV protease; numbered along this chain (parent)", "chain": "MGESLFKGPRDYNPISSSICHLTNESDGHTTSLYGIGFGPFIITNKHLFRRNNGTLVVQSLHGVFKVKDTTTLQQHLVDGRDMIIIRMPKDFPPFPQKLKFREPQREERICLVTTNFQTKSMSSMVSDTSCTFPSGDGIFWKHWIQTKDGQCGSPLVSTRDGFIVGIHSASNFTNTNNYFTSVPKNFMELLTNQEAQQWVSGWRLNADSVLWGGHKVFMVKPEEPFQPVKEATQL"}},
  "variants_of": "B1",
  "test": "raw area under fraction-flipped curve 0-4 h after induction (AUC4h, not background-subtracted), DNA-recorder readout of cleavage of the substrate (dimensionless); higher = more cleavage of the substrate by the protease variant",
  "conditions": "temperature: 34 °C; time window: 0-4 h after rhamnose induction",
  "procedure": "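In vivo DNA recorder in E. coli TOP10(DE3) ΔrhaA at 34 °C. Each TEVp single-site mutant (parent TEVp 0) is paired with a single-site variant of the 7-mer TEVs (canonical ENLYFQ|S). The substrate sits between flexible linkers in a Bxb1-sfGFP-TEVs-SsrA fusion, so cleavage stabilises Bxb1 and speeds flipping of a recombination array, read by NGS. The value is the raw area under the fraction-flipped curve over 0-4 h after rhamnose induction (AUC4h), with ≥20 reads per time point. It is not background-subtracted; inactive controls average about 0.047.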",
  "note": "The list shows a part of the results. Sequences were assembled here from the parent chain. Values near 0.05 are background.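 Also: Bxb1 expression induced with 0.2% (w/v) L-rhamnose at OD600 near 0.5, cultures sampled hourly, flipped fraction per protease–substrate barcode pair counted by paired-end Illumina sequencing.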",
  "data": [
    {"variant": "MGESLFKGPRDYNPISSSICHLTNESFGHTTSLYGIGFGPFIITNKHLFRRNNGTLVVQSLHGVFKVKDTTTLQQHLVDGRDMIIIRMPKDFPPFPQKLKFREPQREERICLVTTNFQTKSMSSMVSDTSCTFPSGDGIFWKHWIQTKDGQCGSPLVSTRDGFIVGIHSASNFTNTNNYFTSVPKNFMELLTNQEAQQWVSGWRLNADSVLWGGHKVFMVKPEEPFQPVKEATQL", "note": "[D27F]", "values": [
      {"measurement": "area with substrate DNLYFQS", "result": 0.0668},
      {"measurement": "area with substrate FNLYFQS", "result": 0.0564},
      {"measurement": "area with substrate INLYFQS", "result": 0.0616},
      {"measurement": "area with substrate KNLYFQS", "result": 0.0491},
      {"measurement": "area with substrate MNLYFQS", "result": 0.0813},
      {"measurement": "area with substrate NNLYFQS", "result": 0.089},
      {"measurement": "area with substrate PNLYFQS", "result": 0.045},
      {"measurement": "area with substrate SNLYFQS", "result": 0.0396},
      {"measurement": "area with substrate TNLYFQS", "result": 0.0497},
      {"measurement": "area with substrate WNLYFQS", "result": 0.0545}
    ]},
    {"variant": "MGESLFKGPRDYNPISSSICHLTNESIGHTTSLYGIGFGPFIITNKHLFRRNNGTLVVQSLHGVFKVKDTTTLQQHLVDGRDMIIIRMPKDFPPFPQKLKFREPQREERICLVTTNFQTKSMSSMVSDTSCTFPSGDGIFWKHWIQTKDGQCGSPLVSTRDGFIVGIHSASNFTNTNNYFTSVPKNFMELLTNQEAQQWVSGWRLNADSVLWGGHKVFMVKPEEPFQPVKEATQL", "note": "[D27I]", "values": [
      {"measurement": "area with substrate DNLYFQS", "result": 0.0689},
      {"measurement": "area with substrate FNLYFQS", "result": 0.0786},
      {"measurement": "area with substrate GNLYFQS", "result": 0.0444},
      {"measurement": "area with substrate HNLYFQS", "result": 0.0495},
      {"measurement": "area with substrate KNLYFQS", "result": 0.0534},
      {"measurement": "area with substrate LNLYFQS", "result": 0.0598},
      {"measurement": "area with substrate MNLYFQS", "result": 0.0526},
      {"measurement": "area with substrate PNLYFQS", "result": 0.0555},
      {"measurement": "area with substrate QNLYFQS", "result": 0.0682},
      {"measurement": "area with substrate SNLYFQS", "result": 0.0655},
      {"measurement": "area with substrate TNLYFQS", "result": 0.0574},
      {"measurement": "area with substrate VNLYFQS", "result": 0.0626},
      {"measurement": "area with substrate WNLYFQS", "result": 0.0525},
      {"measurement": "area with substrate YNLYFQS", "result": 0.0638}
    ]},
    {"variant": "MGESLFKGPRDYNPISSSICHLTNESDGHHTSLYGIGFGPFIITNKHLFRRNNGTLVVQSLHGVFKVKDTTTLQQHLVDGRDMIIIRMPKDFPPFPQKLKFREPQREERICLVTTNFQTKSMSSMVSDTSCTFPSGDGIFWKHWIQTKDGQCGSPLVSTRDGFIVGIHSASNFTNTNNYFTSVPKNFMELLTNQEAQQWVSGWRLNADSVLWGGHKVFMVKPEEPFQPVKEATQL", "note": "[T30H]", "values": [
      {"measurement": "area with substrate DNLYFQS", "result": 0.0814},
      {"measurement": "area with substrate GNLYFQS", "result": 0.0688},
      {"measurement": "area with substrate HNLYFQS", "result": 0.0577},
      {"measurement": "area with substrate INLYFQS", "result": 0.0609},
      {"measurement": "area with substrate KNLYFQS", "result": 0.0653},
      {"measurement": "area with substrate LNLYFQS", "result": 0.0553},
      {"measurement": "area with substrate MNLYFQS", "result": 0.063},
      {"measurement": "area with substrate NNLYFQS", "result": 0.0664},
      {"measurement": "area with substrate PNLYFQS", "result": 0.0717},
      {"measurement": "area with substrate QNLYFQS", "result": 0.0676},
      {"measurement": "area with substrate RNLYFQS", "result": 0.058},
      {"measurement": "area with substrate SNLYFQS", "result": 0.0669},
      {"measurement": "area with substrate TNLYFQS", "result": 0.072},
      {"measurement": "area with substrate VNLYFQS", "result": 0.0752},
      {"measurement": "area with substrate WNLYFQS", "result": 0.0585},
      {"measurement": "area with substrate YNLYFQS", "result": 0.0578}
    ]},
    {"variant": "MGESLFKGPRDYNPISSSICHLTNESDGHMTSLYGIGFGPFIITNKHLFRRNNGTLVVQSLHGVFKVKDTTTLQQHLVDGRDMIIIRMPKDFPPFPQKLKFREPQREERICLVTTNFQTKSMSSMVSDTSCTFPSGDGIFWKHWIQTKDGQCGSPLVSTRDGFIVGIHSASNFTNTNNYFTSVPKNFMELLTNQEAQQWVSGWRLNADSVLWGGHKVFMVKPEEPFQPVKEATQL", "note": "[T30M]", "values": [
      {"measurement": "area with substrate DNLYFQS", "result": 0.0781},
      {"measurement": "area with substrate FNLYFQS", "result": 0.053},
      {"measurement": "area with substrate HNLYFQS", "result": 0.0603},
      {"measurement": "area with substrate INLYFQS", "result": 0.0541},
      {"measurement": "area with substrate KNLYFQS", "result": 0.0641},
      {"measurement": "area with substrate MNLYFQS", "result": 0.0624},
      {"measurement": "area with substrate NNLYFQS", "result": 0.0645},
      {"measurement": "area with substrate PNLYFQS", "result": 0.0668},
      {"measurement": "area with substrate QNLYFQS", "result": 0.079},
      {"measurement": "area with substrate SNLYFQS", "result": 0.0736},
      {"measurement": "area with substrate TNLYFQS", "result": 0.0628},
      {"measurement": "area with substrate VNLYFQS", "result": 0.0669},
      {"measurement": "area with substrate WNLYFQS", "result": 0.0548},
      {"measurement": "area with substrate YNLYFQS", "result": 0.0696}
    ]},
    {"variant": "MGESLFKGPRDYNPISSSICHLTNESDGHTYSLYGIGFGPFIITNKHLFRRNNGTLVVQSLHGVFKVKDTTTLQQHLVDGRDMIIIRMPKDFPPFPQKLKFREPQREERICLVTTNFQTKSMSSMVSDTSCTFPSGDGIFWKHWIQTKDGQCGSPLVSTRDGFIVGIHSASNFTNTNNYFTSVPKNFMELLTNQEAQQWVSGWRLNADSVLWGGHKVFMVKPEEPFQPVKEATQL", "note": "[T31Y]", "values": [
      {"measurement": "area with substrate DNLYFQS", "result": 0.0752},
      {"measurement": "area with substrate FNLYFQS", "result": 0.0654},
      {"measurement": "area with substrate HNLYFQS", "result": 0.0498},
      {"measurement": "area with substrate LNLYFQS", "result": 0.0816},
      {"measurement": "area with substrate PNLYFQS", "result": 0.0745},
      {"measurement": "area with substrate SNLYFQS", "result": 0.065},
      {"measurement": "area with substrate TNLYFQS", "result": 0.0688},
      {"measurement": "area with substrate VNLYFQS", "result": 0.0499},
      {"measurement": "area with substrate WNLYFQS", "result": 0.06},
      {"measurement": "area with substrate YNLYFQS", "result": 0.063}
    ]},
    {"variant": "MGESLFKGPRDYNPISSSICHLTNESDGHTTSAYGIGFGPFIITNKHLFRRNNGTLVVQSLHGVFKVKDTTTLQQHLVDGRDMIIIRMPKDFPPFPQKLKFREPQREERICLVTTNFQTKSMSSMVSDTSCTFPSGDGIFWKHWIQTKDGQCGSPLVSTRDGFIVGIHSASNFTNTNNYFTSVPKNFMELLTNQEAQQWVSGWRLNADSVLWGGHKVFMVKPEEPFQPVKEATQL", "note": "[L33A]", "values": [
      {"measurement": "area with substrate DNLYFQS", "result": 0.0576},
      {"measurement": "area with substrate KNLYFQS", "result": 0.0951},
      {"measurement": "area with substrate MNLYFQS", "result": 0.0686},
      {"measurement": "area with substrate SNLYFQS", "result": 0.0888},
      {"measurement": "area with substrate TNLYFQS", "result": 0.0682}
    ]},
    {"variant": "MGESLFKGPRDYNPISSSICHLTNESDGHTTSLMGIGFGPFIITNKHLFRRNNGTLVVQSLHGVFKVKDTTTLQQHLVDGRDMIIIRMPKDFPPFPQKLKFREPQREERICLVTTNFQTKSMSSMVSDTSCTFPSGDGIFWKHWIQTKDGQCGSPLVSTRDGFIVGIHSASNFTNTNNYFTSVPKNFMELLTNQEAQQWVSGWRLNADSVLWGGHKVFMVKPEEPFQPVKEATQL", "note": "[Y34M]", "values": [
      {"measurement": "area with substrate DNLYFQS", "result": 0.0771},
      {"measurement": "area with substrate FNLYFQS", "result": 0.0454},
      {"measurement": "area with substrate HNLYFQS", "result": 0.0585},
      {"measurement": "area with substrate MNLYFQS", "result": 0.0663},
      {"measurement": "area with substrate NNLYFQS", "result": 0.0547},
      {"measurement": "area with substrate SNLYFQS", "result": 0.0649},
      {"measurement": "area with substrate TNLYFQS", "result": 0.061},
      {"measurement": "area with substrate YNLYFQS", "result": 0.0474}
    ]},
    {"variant": "MGESLFKGPRDYNPISSSICHLTNESDGHTTSLPGIGFGPFIITNKHLFRRNNGTLVVQSLHGVFKVKDTTTLQQHLVDGRDMIIIRMPKDFPPFPQKLKFREPQREERICLVTTNFQTKSMSSMVSDTSCTFPSGDGIFWKHWIQTKDGQCGSPLVSTRDGFIVGIHSASNFTNTNNYFTSVPKNFMELLTNQEAQQWVSGWRLNADSVLWGGHKVFMVKPEEPFQPVKEATQL", "note": "[Y34P]", "values": [
      {"measurement": "area with substrate DNLYFQS", "result": 0.0491},
      {"measurement": "area with substrate FNLYFQS", "result": 0.0445},
      {"measurement": "area with substrate KNLYFQS", "result": 0.0583},
      {"measurement": "area with substrate MNLYFQS", "result": 0.0657},
      {"measurement": "area with substrate PNLYFQS", "result": 0.0528},
      {"measurement": "area with substrate SNLYFQS", "result": 0.0509},
      {"measurement": "area with substrate TNLYFQS", "result": 0.0619},
      {"measurement": "area with substrate WNLYFQS", "result": 0.0642},
      {"measurement": "area with substrate YNLYFQS", "result": 0.063}
    ]}
  ]
}
